In the supplement of paper PMC3334620:
In all, about 33,000 sequences were measured (“E-score (-0.5 to 0.5)”: median about -0.054, highest 2% from about 0.39 on). Some of the results follow.

target: Ylr278c (UniProt Q05854); experiment: PBM E-score (8-mer binding enrichment) (E-score (-0.5 to 0.5)); higher = stronger / more preferred TF binding; most listed sequences are background and not binding sites; conditions: protein concentration: 200 nM; construct: GST-DNA-binding domain
Procedure, shortened: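 E-scores (a modified Wilcoxon-Mann-Whitney statistic) were assigned by the Universal PBM Analysis Suite to every ungapped eight-base word pooled with its reverse complement. The input came from universal all-10-mer Agilent arrays made double-stranded by primer extension and probed with GST-tagged yeast transcription factors at about 100-200 nM. Fluorescent anti-GST detected bound protein, and masliner normalised the scans.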

Sequence | PBM E-score
ATTTTATA | 0.138
GCTTCTAC | -0.123
AGCAATGG | -0.0209
GACCAGTC | -0.0978
ATGGTGAG | -0.236
AGGACAGA | -0.225
CTTGAATA | -0.0169
CCTCCCAA | -0.0257
ACGCTGCT | -0.153
GAACTAGA | -0.0703
GGAGGAGA | 0.13
CAAATTGC | 0.0276
CGTCTCTA | -0.114
ATATGCTA | -0.0729
GCAAATAA | 0.124
AACCGTCA | -0.145
CTGGCGAC | -0.273
AACCTTCG | 0.0316
TTGTCAAA | -0.0285
GTACTCAC | -0.124
AAGTAAAG | 0.00681
TAGGTAGA | -0.202
ATTCCCAG | 0.191
CCTTCAAA | 0.0759
CAGGCTGC | -0.284

Sequence | PBM E-score
GTATTAAA | 0.0419
CCTAACAA | -0.218
CATCGCTC | 0.0563
TAACGGTA | -0.161
TACTTTGA | -0.223
GGGTCCGA | 0.366
GGATCGCA | -0.0558
CCAGGAGA | -0.0398
CATGGAGA | -0.0191
CCTGATAA | -0.208
CCCCTAAA | -0.0849
ATTAGGAG | 0.0759
CCGATAAC | 0.363
ACAGTGAT | -0.19
AATGCGGG | 0.299
ATGGAAGC | -0.00732
CAGACATC | -0.143
GTTTTGAA | -0.158
GGCGGTAA | 0.313
CCAAGTGA | -0.121
ATCGCACC | 0.0302
AAGGTTCC | 0.0514
GGCGTACC | 0.11
CATAGATA | -0.0509
TTCGCGAA | 0.169

Sequence | PBM E-score
CGGAAAGC | 0.336
AAACTTAG | -0.113
ATCTGCCC | 0.0953
TCGATACA | -0.102
ATAAAGCA | -0.125
ATATCAAG | -0.0191
CATACAGG | -0.231
AGATGTAA | -0.00025
CCCCTGAG | -0.18
CTATCATC | 0.0685
ACTGAGGG | -0.251
CGGTCCAA | 0.104
AGGAACTA | -0.0554
ATAGGAAG | -0.215
ATGCCAGG | -0.0491
CGTGATCA | -0.0575
AATCGTTA | -0.0844
TCCACGGA | 0.406
ATATGCCC | -0.0979
GGCGCTGA | 0.136
ATCATGGC | -0.125
ACATGTCG | -0.0102
GTTTTCAA | 0.0165
GGAGCATA | 0.211
CCGCCACG | 0.141

Sequence | PBM E-score
CACCGTTC | -0.0165
ACTTGGTC | 0.0686
ACTATGGG | -0.0735
AGTCGTCC | -0.0402
ACTGCCAC | -0.27
AAGCATAC | -0.161
GTCAATGA | -0.211
CTGAGATA | -0.0373
ACTGAGCT | 0.0262
AAAGACTT | -0.182
CAAGGCGC | 0.0157
AAAATGCG | 0.151
GGGTGCAA | 0.129
TAAAGATA | -0.0605
GGGAAAGA | -0.0683
CTTCACTA | -0.0407
ACGCTAGA | -0.15
ACCGAGGA | 0.103
TAGTGCCA | -0.192
ATCAAGTA | -0.0983
TAGTAAAA | -0.04
CCATACGA | -0.198
ACAATCTG | -0.116
AGTATGTA | -0.105
ACACCGGC | 0.355

Sequence | PBM E-score
CGACTGTA | -0.139
AAGCAGTC | -0.122
TATCCTAA | -0.128
CCAGCTCC | 0.22
GAATTGCA | 0.0586
ATACCTAC | -0.0517
GATGACCC | -0.216
ACTCGAAC | -0.163
AGACTGCG | -0.114
TATTCTGA | -0.109
CTATGGAG | -0.29
AAGTTTAC | -0.103
GCTTGAGA | -0.136
AGTACGGC | 0.108
ATAGTTTA | -0.174
CTAGACGA | -0.268
ACACCGGG | 0.341
AGACTGGG | -0.187
AACAAGAG | -0.097
CATGCCAC | -0.167
AAAATTAA | 0.0191
CTTTCACA | -0.0382
GCGGCCTA | 0.0197
CTACTCAG | -0.274
TACGTGAA | -0.244

Sequence | PBM E-score
CTAAGGGA | -0.169
AGCGGTCC | 0.222
AATGCCTG | -0.129
CCCGACGG | 0.341
ATAAGTTC | 0.215
TATCGCCA | -0.129
CATCACAA | -0.173
TATCGACA | -0.13
ACAAGTCT | -0.258
AGACATAT | -0.0842
CACTCGTC | -0.0408
GAACTACA | 0.0153
GTGATCCA | -0.102
AAAGCCGG | 0.391
AGCGGCGC | 0.0739
CGACATCA | 0.129
GGGAGCCA | -0.264
AGATAGTA | -0.18
GCCCTTAA | -0.0754
GAAGGGTC | -0.0007
AGGTTTGG | -0.138
ACAAGTCC | 0.161
ATCTAGAT | -0.314
CAGTGCCA | -0.371
ATCAGTCA | -0.146

Sequence | PBM E-score
ATGAACTC | -0.0295
CTCTTAGC | -0.0954
GAATAACA | 0.0628
AGGAGAAA | -0.0288
CTCTATGA | -0.324
AAATTGCG | 0.197
AATAGACA | -0.221
GACCACTA | -0.00356
GTGTACAA | 0.0677
ACCGGAGT | 0.481
GGCTTTAC | 0.243
ACGCTCCC | 0.0269
AAGCCATA | -0.379
GAACGGTC | 0.0597
TCTTTTCA | -0.0575
ATTACCAC | -0.165
AGGAAAAT | 0.037
AATATATC | 0.154
GAAGCTTA | -0.11
AACTGACA | -0.167
CTATGTAC | -0.195
GAGACGGC | 0.151
CGGCACCA | 0.191
GATTAAGA | 0.0498
GGATCAGA | -0.0894

Sequence | PBM E-score
AATACCAA | -0.0497
AACTAATC | -0.047
GGTCGAAC | -0.142
GGTAGTAA | -0.167
AAGGTCGA | -0.0519
AGATTGCG | 0.14
GCGCGCTA | 0.0544
GTATCTCA | -0.0479
CACCGTCA | -0.00062
CAGAGCTG | -0.238
AATCAGAC | -0.0615
CTGGGAAA | -0.0994
AGTCATAA | 0.0358
GGAGAAAA | 0.299
AGATGACA | -0.145
TCATCTAA | -0.0192
TATCCGGA | 0.469
CCACAACG | 0.0154
GCCGTAAA | 0.193
CAATCGTG | 0.0226
CCGGGGCG | 0.42
CATCCACG | -0.153
GCCATGCA | -0.0698
ATTCTTTA | -0.162
GTCTAGTA | -0.0674

Sequence | PBM E-score
ATGGCTGC | -0.196
ACGGAACG | 0.271
ACTAGTTA | -0.145
CCTAATAC | -0.132
TCAGAAGA | -0.125
CTTATAAA | 0.0889
CGCAAACA | -0.0676
CAGTGGCC | -0.123
CCCCTTGC | -0.267
CAAATAGC | 0.00821
CTCCTGTA | 0.0539
ACGACCGC | 0.142
CGGGCAAC | 0.157
GTACCACA | -0.139
CATAATAG | -0.116
AGCTTCAT | 0.0699
CGACCCGC | -0.0064
CCATATCA | -0.0472
ACGCCTGG | -0.157
